# Reference: the supplement of paper PMC8728848
# The list shows a part of the results.
# B1: Sebin1 (Coprinopsis cinerea), A8PEE3 (protein)
# chain: MTSPFYAHIHNVQDDNTWRFTLIFANRATADEWWRAISEAPANTSIAKSITRVTPQYYTHDVNIWNIWNFFADGNIKSISERFRGRLFIVLENDRGGRGITVIPPVPIVDHVSGNWFYIRSKTAPHLFWYYDERRSSIYASKEKRTRFKISIRNPSSQTPKNAIMINTDDVTIHIKENLYVGVDNNLGHIIPTRAYRTFKFGELESGAIAGFDVVENIEERCSSTFDGASLSISGPDSSSPGEPWELV
# Tests used:
# Experiment in all cases: glycan array binding signal (z-score within array); higher = stronger binding
# Conditions in all cases: glycan notation: IUPAC condensed, linker removed
# GalNAc(b1-4)GlcNAc = molecular target: GalNAc(b1-4)GlcNAc
# In short: (§1)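 The Consortium for Functional Glycomics database supplied 3228 glycan arrays, of which those lacking an available protein sequence were dropped. The binding signal, a within-array Z-score, was averaged across arrays of the same protein sequence and across linkers. Negative scores can be read as non-binding.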
# [1] = molecular target: GalNAc(b1-4)GlcNAc(b1-2)Man
# In short: as §1
# [2] = molecular target: GalNAc(b1-4)GlcNAc(b1-2)Man(a1-3)[GalNAc(b1-4)GlcNAc(b1-2)Man(a1-6)]Man(b1-4)GlcNAc(b1-4)GlcNAc
# In short: as §1
# [3] = molecular target: GalNAc(b1-4)GlcNAc(b1-3)GalNAc(b1-4)GlcNAc
# In short: as §1
# GalNAc(b1-4)GlcNAc6S = molecular target: GalNAc(b1-4)GlcNAc6S
# In short: as §1
# GalNAc(b1-6)GalNAc = molecular target: GalNAc(b1-6)GalNAc
# In short: as §1
# GalNAc3S(b1-4)GlcNAc = molecular target: GalNAc3S(b1-4)GlcNAc
# In short: as §1
# GalNAc3S(b1-4)GlcNAc3S = molecular target: GalNAc3S(b1-4)GlcNAc3S
# In short: as §1
# [4] = molecular target: GalNAc3S(b1-4)[Fuc(a1-3)]GlcNAc
# In short: as §1
# GalNAc4S6S(b1-4)GlcNAc = molecular target: GalNAc4S6S(b1-4)GlcNAc
# In short: as §1
# GalNAc6S(b1-4)GlcNAc = molecular target: GalNAc6S(b1-4)GlcNAc
# In short: as §1
# Glc(a1-4)Glc = molecular target: Glc(a1-4)Glc
# In short: as §1
# [5] = molecular target: Glc(a1-4)Glc(a1-4)Glc(a1-4)Glc
# In short: as §1
# Glc(a1-6)Glc(a1-6)Glc = molecular target: Glc(a1-6)Glc(a1-6)Glc
# In short: as §1
# [6] = molecular target: Glc(a1-6)Glc(a1-6)Glc(a1-6)Glc
# In short: as §1
# Glc(b1-4)Glc = molecular target: Glc(b1-4)Glc
# In short: as §1
# Glc(b1-6)Glc = molecular target: Glc(b1-6)Glc
# In short: as §1
# GlcA(b1-3)Gal = molecular target: GlcA(b1-3)Gal
# In short: as §1
# GlcA(b1-3)GlcNAc = molecular target: GlcA(b1-3)GlcNAc
# In short: as §1
# GlcA(b1-6)Gal = molecular target: GlcA(b1-6)Gal
# In short: as §1
# [7] = molecular target: GlcA3S(b1-3)Gal(b1-4)GlcNAc(b1-2)Man
# In short: as §1
# [8] = molecular target: GlcA3S(b1-3)Gal(b1-4)GlcNAc(b1-3)Gal(b1-4)Glc
# In short: as §1
# [9] = molecular target: GlcNAc(a1-3)Gal(b1-4)GlcNAc
# In short: as §1
# [10] = molecular target: GlcNAc(a1-4)Gal(b1-3)GlcNAc
# In short: as §1
# [11] = molecular target: GlcNAc(a1-4)Gal(b1-4)GalNAc
# In short: as §1
# [12] = molecular target: GlcNAc(a1-4)Gal(b1-4)GlcNAc
# In short: as §1
# [13] = molecular target: GlcNAc(a1-4)Gal(b1-4)GlcNAc(b1-3)Gal(b1-4)Glc
# In short: as §1
# [14] = molecular target: GlcNAc(a1-4)Gal(b1-4)GlcNAc(b1-3)Gal(b1-4)GlcNAc
# In short: as §1
# [15] = molecular target: GlcNAc(a1-4)Gal(b1-4)GlcNAc(b1-3)Gal(b1-4)GlcNAc(b1-3)Gal(b1-4)GlcNAc
# In short: as §1
# [16] = molecular target: GlcNAc(a1-4)Gal(b1-4)GlcNAc(b1-3)Gal(b1-4)[Fuc(a1-3)]GlcNAc(b1-3)Gal(b1-4)[Fuc(a1-3)]GlcNAc
# In short: as §1
# [17] = molecular target: GlcNAc(a1-6)Gal(b1-4)GlcNAc
# In short: as §1
# [18] = molecular target: GlcNAc(b1-2)Gal(b1-3)GalNAc
# In short: as §1
# [19] = molecular target: GlcNAc(b1-2)Man(a1-3)[GlcNAc(b1-2)Man(a1-6)]Man(b1-4)GlcNAc(b1-4)GlcNAc
# In short: as §1
# [20] = molecular target: GlcNAc(b1-2)Man(a1-3)[GlcNAc(b1-2)Man(a1-6)]Man(b1-4)GlcNAc(b1-4)[Fuc(a1-6)]GlcNAc
# In short: as §1
# [21] = molecular target: GlcNAc(b1-2)Man(a1-3)[GlcNAc(b1-4)][GlcNAc(b1-2)Man(a1-6)]Man(b1-4)GlcNAc(b1-4)GlcNAc
# In short: as §1
# [22] = molecular target: GlcNAc(b1-2)Man(a1-3)[GlcNAc(b1-4)][GlcNAc(b1-2)Man(a1-6)]Man(b1-4)GlcNAc(b1-4)[Fuc(a1-6)]GlcNAc
# In short: as §1
# [23] = molecular target: GlcNAc(b1-2)[GlcNAc(b1-4)]Man(a1-3)[GlcNAc(b1-2)Man(a1-6)]Man(b1-4)GlcNAc(b1-4)GlcNAc
# In short: as §1
# [24] = molecular target: GlcNAc(b1-2)[GlcNAc(b1-4)]Man(a1-3)[GlcNAc(b1-4)][GlcNAc(b1-2)Man(a1-6)]Man(b1-4)GlcNAc(b1-4)GlcNAc
# In short: as §1
# [25] = molecular target: GlcNAc(b1-2)[GlcNAc(b1-4)]Man(a1-3)[GlcNAc(b1-4)][GlcNAc(b1-2)[GlcNAc(b1-6)]Man(a1-6)]Man(b1-4)GlcNAc(b1-4)GlcNAc
# In short: as §1
# [26] = molecular target: GlcNAc(b1-2)[GlcNAc(b1-4)]Man(a1-3)[GlcNAc(b1-4)][GlcNAc(b1-2)[GlcNAc(b1-6)]Man(a1-6)]Man(b1-4)GlcNAc(b1-4)[Fuc(a1-6)]GlcNAc
# In short: as §1
# [27] = molecular target: GlcNAc(b1-2)[GlcNAc(b1-6)]Man(a1-6)[GlcNAc(b1-2)Man(a1-3)]Man(b1-4)GlcNAc(b1-4)GlcNAc
# In short: as §1
# [28] = molecular target: GlcNAc(b1-2)[GlcNAc(b1-6)]Man(a1-6)[GlcNAc(b1-2)Man(a1-3)]Man(b1-4)GlcNAc(b1-4)[Fuc(a1-6)]GlcNAc
# In short: as §1
# [29] = molecular target: GlcNAc(b1-2)[GlcNAc(b1-6)]Man(a1-6)[GlcNAc(b1-4)][GlcNAc(b1-2)Man(a1-3)]Man(b1-4)GlcNAc(b1-4)GlcNAc
# In short: as §1
# GlcNAc(b1-3)Fuc = molecular target: GlcNAc(b1-3)Fuc
# In short: as §1
# GlcNAc(b1-3)Gal = molecular target: GlcNAc(b1-3)Gal
# In short: as §1
binder,measurement,setting,value
B1,glycan array binding signal (z-score),GalNAc(b1-4)GlcNAc,-0.552
same,glycan array binding signal (z-score),[1],-0.15
same,glycan array binding signal (z-score),[2],0.758
same,glycan array binding signal (z-score),[3],0.927
same,glycan array binding signal (z-score),GalNAc(b1-4)GlcNAc6S,0.053
same,glycan array binding signal (z-score),GalNAc(b1-6)GalNAc,-0.575
same,glycan array binding signal (z-score),GalNAc3S(b1-4)GlcNAc,-0.449
same,glycan array binding signal (z-score),GalNAc3S(b1-4)GlcNAc3S,-0.269
same,glycan array binding signal (z-score),[4],-0.86
same,glycan array binding signal (z-score),GalNAc4S6S(b1-4)GlcNAc,-0.04
same,glycan array binding signal (z-score),GalNAc6S(b1-4)GlcNAc,0.464
same,glycan array binding signal (z-score),Glc(a1-4)Glc,-0.581
same,glycan array binding signal (z-score),[5],-0.161
same,glycan array binding signal (z-score),Glc(a1-6)Glc(a1-6)Glc,-0.354
same,glycan array binding signal (z-score),[6],-0.198
same,glycan array binding signal (z-score),Glc(b1-4)Glc,-0.448
same,glycan array binding signal (z-score),Glc(b1-6)Glc,-0.361
same,glycan array binding signal (z-score),GlcA(b1-3)Gal,-0.505
same,glycan array binding signal (z-score),GlcA(b1-3)GlcNAc,-0.053
same,glycan array binding signal (z-score),GlcA(b1-6)Gal,-0.346
same,glycan array binding signal (z-score),[7],-0.093
same,glycan array binding signal (z-score),[8],0.277
same,glycan array binding signal (z-score),[9],-0.577
same,glycan array binding signal (z-score),[10],-1.01
same,glycan array binding signal (z-score),[11],-0.32
same,glycan array binding signal (z-score),[12],-0.341
same,glycan array binding signal (z-score),[13],-0.355
same,glycan array binding signal (z-score),[14],-0.738
same,glycan array binding signal (z-score),[15],0.206
same,glycan array binding signal (z-score),[16],0.328
same,glycan array binding signal (z-score),[17],-0.309
same,glycan array binding signal (z-score),[18],-0.086
same,glycan array binding signal (z-score),[19],0.12
same,glycan array binding signal (z-score),[20],0.262
same,glycan array binding signal (z-score),[21],1.01
same,glycan array binding signal (z-score),[22],-0.296
same,glycan array binding signal (z-score),[23],0.255
same,glycan array binding signal (z-score),[24],2.33
same,glycan array binding signal (z-score),[25],0.419
same,glycan array binding signal (z-score),[26],-0.274
same,glycan array binding signal (z-score),[27],-0.356
same,glycan array binding signal (z-score),[28],-0.058
same,glycan array binding signal (z-score),[29],-0.006
same,glycan array binding signal (z-score),GlcNAc(b1-3)Fuc,-0.715
same,glycan array binding signal (z-score),GlcNAc(b1-3)Gal,-0.291
